In US12551573B2, “Compositions and methods for the targeting of PCSK9” (Scribe Therapeutics Inc., priority 2022, dated 2026):

System: HBEGF locus
Assay type: cell-based, human
Conditions: high-throughput screen of dXR repression of the HBEGF gene
[1] = abundance of each domain in the library before and after diphtheria toxin selection, HEK293T cells

Row | Molecule | Log2 (fold change) [1] | Log2 (fold change) (change in abundance of each domain in the library before and after diphtheria toxin selection)
1 | DOMAIN_18433 (protein, listed as Aotus trivirgatus) EPGTVSFGDVAVYFSREEWGCLRPAQRALYRDVMRETYSHLGALGVGGSKPALISWVEEEAELWGPAAQDPEVAKRPTEAD | 3.4614 | 
2 | DOMAIN_18441 (protein, listed as Felis catus) AQAPLSFEDVAVSFSREEWRLLVPAQKDLYRDVMLENYRNLVSVGYQASEPGSLFQLEHAGPLRAVEGAAPRPPCPEEIWE | 3.7534 | 
3 | DOMAIN_18458 (protein, listed as Monodelphis domestica) MLFQELVTFKDVAVDFTQEEWKCLAPSQKELYREVMLENYRNLVSLGRAVSKPELIHQLERGETPWRPKGDGWRNSLRPGE | 3.1061 | 
4 | DOMAIN_18483 (protein, listed as Monodelphis domestica) GQEEVTFKDVAVDFTREEWRLLSPPQKELYKEVMVENARNLLSVGLPAPTKDVLSYLKKRGAPVMLEQEGLRNYFPEGEIR | 2.8259 | 
5 | DOMAIN_18498 (protein, listed as Aotus trivirgatus) VAFEDVAVNFTQEEWALLDPSQKNLYREVMQETLRNLASIGQRWSNQNAEDKHQNPRRNLRRLIGERLFQSKESHQHVEVL | 2.7354 | 
6 | DOMAIN_18502 (protein, listed as Myotis davidii) MVFEDVAVYFSREEWGLLDSAQRALYRQVMLENFALVASLGLSASRPRIVLQLERGEEPWVLSGLDVALARDAQRRPGPGE | 3.4127 | 
7 | DOMAIN_18536 (protein, listed as Camelus dromedarius) WKESLSFEDVALYFTREEWSRLDWAQKDLYRDVMLENYRNMIVLGFQFPKPEVICQLEQWEEPWILDLPRAGTRKASGSAC | 3.2028 | 
8 | DOMAIN_18580 (protein, Cercocebus atys) SQESVAFEDVAVYFTTKEWAIMVPAERALYRDVMLENYEAVAFVVPPTSKPALISHLEQGKESCFIRPQGVLSRSDWRAGL | 4.4477 | 
9 | DOMAIN_18589 (protein, listed as Neomonachus schauinslandi) QPREAVTFKDVEVTFSQDEWGWLDPAQRNLYRDVMLENYGNVVSLVGPFTKPVLISWLEAREPWGLNVQGAQPKGKPGVAP | 3.039 | 
10 | DOMAIN_18594 (protein, listed as Monodelphis domestica) AQVLVTFQDVAVDFTQEEWRLLDPGQKELYKEVMLENAENMLFLGLPVPREDWFFHFHEGGDPWMLEGKGPSISRLDEERH | 3.2119 | 
11 | DOMAIN_18618 (protein, listed as Physeter macrocephalus) AQGLVLFEDVSVDFTQKEWQLLDRTQRLLYRDVMLENYGHLVSLGHCVSKPELILKLEQEEEPWILKGQLASESHPEVQRT | 2.6489 | 
12 | DOMAIN_18677 (protein, listed as Monodelphis domestica) FQASVTFKDVAVDFTWEEWRLLDPPQKELFWEVMLENYRNLVCLGLADSNKDVMISELESGEPHWIPTGGVLRSCWPGWES | 2.2686 | 
13 | DOMAIN_18698 (protein, listed as Felis catus) FQESVTFEDVAVYFSENEWIGLAPAQRVLYRDVMLENYGVVASLAFPFPKPALISQLERGEAPWCKAPQGAVDGECPRGVS | 3.3067 | 
14 | DOMAIN_18724 (protein, Pan troglodytes) FQEPVTFEDVAVYFTQNEWASLHPMQRALHREVMLENYANVTSLSAFPFPKPDLIFQLEQGEAAWGPDPWTLAGGETLRGM | 3.2062 | 
15 | DOMAIN_18734 (protein, listed as Monodelphis domestica) PGQEVVTFKDMAVDFTREEWRLLTPPQKELYKEVMLENARNLLSVGFAVPGDVISYLEQREAPWLLEQEGLRSCSPGDISP | 2.8813 | 
16 | DOMAIN_18752 (protein, listed as Monodelphis domestica) APAPVSFRDVAVDFTRQEWQLLAPAQRALYREVMLENYRNVASLGHPVSKPNVIFQLEQSEAPWMPEGEAARSLPPDWEAR | 3.5544 | 
17 | DOMAIN_18753 (protein, listed as Monodelphis domestica) SITFKDVVVDFTQEEWCLLDPSQKELYREVMLENVQNLFFVEAETNFEVKEMSTKMRLFVEGSNSPRGMKRNPCDFLFREI | 2.6101 | 
18 | DOMAIN_18760 (protein, Pan troglodytes) ALRSVMFSDVSIDFSPEEWEYLDLEQKDLYRDVMLENYSNLVSLAGCFISKPDVISSLEQGKEPWKVVRKGRRQYPDLETK | 3.1806 | 
19 | DOMAIN_18785 (protein, listed as Leptonychotes weddellii) LLTFEDVAVSFSEEEWKLLDPTQKILYNDVMQENYETVISLGLKLKNDTGNDQPISLSALEIQASGCKVLRKARMKVAQKT | 2.9139 | 

Row | Molecule | Log2 (fold change) [1] | Log2 (fold change) (change in abundance of each domain in the library before and after diphtheria toxin selection)
20 | DOMAIN_18817 (protein, listed as Monodelphis domestica) GARVLVSFADVAVYFSPEEWGRLRPEQRALYRDVMRETYGHLGALGFPGPKPALISWMEEAAWDSEAKPVIKRLEDVGQPP | 2.2496 | 
21 | DOMAIN_18830 (protein, listed as Monodelphis domestica) RQERVTFGDVAVDFTLDEWVCLDSAQKALYRDVMLENYGHLVCLGLAGAKPAVIQRLERGEAAWCPGVPGSRLPDWETRLE | 3.2719 | 
22 | DOMAIN_18835 (protein, listed as Camelus dromedarius) PLETVTFGDVVLDFTQEEWALLDTSQKKLFRDVMLENIHHLVSVGYQISKSDVILQLEQGKELWREGEGRPQGRGPGSESP | 2.4878 | 
23 | DOMAIN_18873 (protein, listed as Camelus dromedarius) FQESVTFEDVAIYFSENEWTGLAPAQRALYRDVMLENYGAVASLAAFPFPKPALIFQLEQGEAPWSSAPQGALDGEGPRGI | 3.262 | 
24 | DOMAIN_18891 (protein, listed as Pongo sp.) SKAPVTFGDLAIYFSQEEWEWLSPIQKDLYEDVMLENYRNLVSLGLSFRRPNVITLLEKGKAPWMVEPVRRRRAPGWTTMM | 3.6429 | 
25 | DOMAIN_18935 (protein, Ovis aries) HQEVVTFEDVAVYFTQTEWAGLSPAQRALYRSVMLEIYGNLTSLGYPVPKPALVSLLERGDLPVGLETQDNPPAQGTRDIY | 3.4507 | 
26 | DOMAIN_18947 (protein, listed as Enhydra lutris) HQGLLTFRDVAVEFSLEEWGRLTHTQRQLYRDVMLENYGHLLFLGLIVSKPDLVSFLEQKKEPWNLKRKKTVAFHPAISSH | 3.3167 | 
27 | DOMAIN_18971 (protein, listed as Enhydra lutris) RPGAVSFADVAVYFSPEEWGCLRPAQRALYRDVMRETYGHLGALGFAGSKPALISWLERKKEVWSPEAEDPEDGARHPGSG | 3.3941 | 
28 | DOMAIN_18977 (protein, listed as Pongo sp.) SKAPVTFGDLAIYFSQEEWEWLSPIQKDLYEDVMLENYRNLVSLGLSFRRPNVITLLEKGKAPWMVEPVRRRRAPELTEAS | 3.6262 | 
29 | DOMAIN_134 (protein, listed as Pan paniscus) PAQGPGKARPSRKRGRRPRALKFVDVAVYFSPEEWGCLRPAQRALYRDVMRETYGHLGALGCAGPKPALISWLERNTDDWE |  | 2.9322
30 | DOMAIN_19005 (protein, listed as Enhydra lutris) SQSLVTFGDVAVDFSREEWEWLSSAQRTLYRTVMLENYRNLVSLGLCISKPDMISSLEQRKEPWMAKRKLTRGRCPDLKIV | 3.4092 | 
31 | DOMAIN_19028 (protein, listed as Pongo sp.) ACGSITFRDVAIDFSHQEWEYLNLVQKTLYQEVMMENYDNLVLLGHSKSKPDLITLLEQGKEPWMIVREETRGECTAELQS | 2.3618 | 
32 | DOMAIN_19056 (protein, source 1..81: note = Bos indicus x Bos taurus) HQEVVTFEDVAVYFTRTEWAGLSPAQRALYRSVMLEIYGSLTSLGYPVPKPALISLLERGDLPVGLETQDNPPAQGTRDIY | 3.0542 | 
33 | DOMAIN_19072 (protein, Vulpes vulpes) FQGSVSFKDVTVGFTLEEWQHLDSTQRSLYRDVMLENYSNLVSLGYCVTKPEVIFRLEQGEEPWILEEEFPSQSFPESWET | 2.8133 | 
34 | DOMAIN_19079 (protein, listed as Otolemur garnettii) SVMFNDISIVFSQEEWEYLDLEQKDLYKDVMLENYGNLVSLGCFIAKPDVISLLEQGKEPWKVIRKGRRGYPDLETRYETK | 4.0159 | 
35 | DOMAIN_19125 (protein, listed as Otolemur garnettii) GTVVFSDVSVDFSQEEWECLDPVQRDLYREVMLENYSNLVSVGAGPYIPKPQVISLLEQGKEPWMVGRELTRGLCSDLESM | 2.9892 | 
36 | DOMAIN_19207 (protein, listed as Enhydra lutris) PQDLMTFEDVAVEFTQWEWGQLDPAQKDLYRVVMLENFKNLASLGFPVAKPYVISQLEKGKEPCVLEGEISTDWEKRPKAK | 2.655 | 
37 | DOMAIN_19220 (protein, listed as Camelus dromedarius) TPEPVRFADVAVYFSLEEWGCLQPAQRALYRDVMRETYGHLGALGFRGTKPALISWVEKEAELWGPDARDPEVGECLTEAD | 3.1947 | 

Read-outs that look alike come from different tables or passages of the source.
